Measurements taken from patent US20240116985A1, “STAPLED PEPTIDES AND METHODS THEREOF” (priority 2020, published 2024).
Where two headings read alike, the source gives them in different places. At least one peptide structure holds a part that was inferred or is arguable (an end, a ring closure or a residue). For part of these data: For at least one compound, name, drawing or mass did not settle the structure.

How the values were obtained:
[1] = system: TCF/LEF luciferase Reporter in DLD1 cells; experiment: TCF reporter assay (DLD1 TCF/LEF luciferase reporter, Bright-Glo); assay type: cell-based; conditions: read-out: DLD1 4% Abs IC50, absolute IC50
Text: Those skilled in the art will appreciate that other suitable reagents may be utilized and various parameters may be adjusted.
DLD1 reporter cell line was generated by using TCF/LEF luciferase Reporter Lentivirus (BPS Bioscience Catalog #79787). Parental DLD1 cells (ATCC@ CCL-221) were transfected with the lentivirus and followed by 3-day puromycin selection. Single clone was selected for Reporter assay.
On Day 1, cultured cells in flasks that are no more than about 60-70% confluent were washed with PBS and typsinized in 3 mL/T75 until cells were free floating. Spin down cells for 5 minutes at 1100RPM. While cells spin, determine the number of plates (3 compounds per plate) needed. After spinning, aspirate the supernatant gently and add 10 mL media (RPMI+4% FBS), and re-suspend and mix the cells gently. Count the cells twice in the cell counter Countess and take average of both the counts, and determine how many cells are needed. After plating cells at 5000 cells/well, seal with aerseal film. 90 uL cells/well. Incubate at 37° C. overnight, tap gently to mix and don't stack plates.
On Day 2, compounds were added. Stock solution was 10 mM. Make the DMSO containing media by adding 36 uL DMSO to 10 mL of media. Make the dilution wells by transferring 100 uL DMSO+Media into rows B-F of a protein LoBind 96-well plate. Row G is empty. Add any extra DMSO+media to row H. Transfer 4 uL of stock solution to Row A. One compound per column. Add 196 uL media to Row A, no DMSO in the media. Concentration of Row A was 200 uM. Mix well and do a 6 pt, 1:2 serial dilution, mix ×10 per transfer and change tips before each transfer. Removed excess volume from final well (row F) and discard. Transfer 10 uL of the compound containing media to cells with a multichannel according to plate maps. Add 60 uL DMSO containing media to the DMSO wells. The edge wells were typically not used in the assay and could be ignored if needed or replaced with PBS, but there typically were liquids in the wells. Cover plates with breathable plate sealer and incubate overnight.
A 96-well plate may be utilized to prepare dilution series for up to 12 compounds, each with several concentrations (e.g., 200, 100, 50, 25, 12.5, 6.25 and 0 uM; can be utilized as 100× depending on final test concentrations).
0 uM is the DMSO control for the whole plate. Edge well filled with 90 uL cells+10 uL DMSO containing media.
On Day 3, luciferase levels were assessed using Bright-Glo (Promega). Equilibrate Bright-Glo to room temperature before addition. 7 mL of mixed Bright-Gbo per plate. Unused Bright-Glo could be store at −80° C. Reconstituted reagent can be stored for up to 1 month at −80° C., or after one freeze-thaw. When ready to read, remove plates from incubator and let sit at room temperature for 15 minutes. Typically stagger taking out plates if reading multiple plates before adding the Bright-Glo. Add 90 uL/well Bright-Glo and shake gently for 3 minutes. Read luminescence on GloMax immediately using ‘BrightGlo’ programs.
Cellular activity was assessed using CTG. Equilibrate CTG reagents to room temperature. Equilibrate plates to room temp, e.g. 15 min. Use same time length for all plates. Add CTG reagent, 25 uL if using undiluted, or 90 uL if diluted 1 to 4. Shake for 2 min to induce cell lysis. Allow plate to incubate at RT for 10 min to stabilize lumine sent signal. Read luminesence using program ‘CellTiter-Glo’. Use Prism to find the Absolute IC50 (AbsIC50=X[50]) of each compound.

[2] = molecular target: T1, beta-catenin/TCF4 engagement (Homo sapiens, UniProt P35222); experiment: Nano-BRET target engagement assay (B-cat-Halo & TCF4-Luc in HEK293 cells); assay type: cell-based; conditions: absolute IC50; read-out: NanoBRET Abs IC50
T1 construct: expressed in transfected cells; host or cells: HEK293
T1 sequence (P35222 1-781): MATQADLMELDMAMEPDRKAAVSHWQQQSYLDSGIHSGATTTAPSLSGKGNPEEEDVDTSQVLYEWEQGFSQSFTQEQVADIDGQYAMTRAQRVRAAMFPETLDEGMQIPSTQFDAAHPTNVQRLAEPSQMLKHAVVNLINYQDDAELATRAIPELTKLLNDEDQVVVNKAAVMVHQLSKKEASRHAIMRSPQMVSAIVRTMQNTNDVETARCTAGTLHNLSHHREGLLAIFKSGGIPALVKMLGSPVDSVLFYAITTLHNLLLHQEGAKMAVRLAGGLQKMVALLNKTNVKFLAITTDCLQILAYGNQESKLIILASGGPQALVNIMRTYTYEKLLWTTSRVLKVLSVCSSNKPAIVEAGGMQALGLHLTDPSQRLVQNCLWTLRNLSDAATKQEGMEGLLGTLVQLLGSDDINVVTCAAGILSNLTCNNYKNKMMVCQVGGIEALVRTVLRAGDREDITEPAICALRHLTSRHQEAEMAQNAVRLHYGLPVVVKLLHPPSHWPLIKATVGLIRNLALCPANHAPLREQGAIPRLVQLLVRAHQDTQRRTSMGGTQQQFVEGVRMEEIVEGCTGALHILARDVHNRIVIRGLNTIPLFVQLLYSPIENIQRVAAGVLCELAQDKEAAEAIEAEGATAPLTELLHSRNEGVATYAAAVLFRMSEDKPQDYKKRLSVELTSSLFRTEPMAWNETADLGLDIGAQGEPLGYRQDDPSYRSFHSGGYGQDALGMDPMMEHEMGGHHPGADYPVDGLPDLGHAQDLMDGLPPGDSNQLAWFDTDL

[3] = molecular target: T2, full-length beta-Catenin (Uniprot ID P35222) (Homo sapiens, UniProt P35222); experiment: Fluorescence polarization IC50 (beta-catenin / 5FAM-TCF4 10-53 competition); assay type: binding; conditions: fluorescence polarization
T2 construct: 10 nM full-length beta-Catenin (Uniprot ID P35222)
T2 sequence (P35222 1-781): T1 sequence (P35222 1-781)

Compound | IC50 [1] [nM] | IC50 [2] [nM] | IC50 ([3]; read-out: beta-Catenin FP IC50) [nM] | IC50 ([3]; beta-catenin, read-out: FP EC50) [nM]
CC(=O)N1CCC[C@]12CC=CCCCC1(CCCC=CCCCOC(=O)N3CC[C@@](C(=O)N[C@@H](Cc4ccccc4Cl)C(=O)N[C@@H](Cc4csc5ccccc45)C(=O)N[C@@H](CCC(N)=O)C(N)=O)(C3)NC(=O)[C@H](CC(C)C)NC(=O)[C@H](Cc3ccccc3)NC(=O)[C@H](C)NC(=O)[C@H](C)NC(=O)[C@H](Cc3cccc(C(=O)O)c3)NC(=O)[C@H](CC(=O)O)NC1=O)NC(=O)[C@H](CC(C)(C)C)NC(=O)[C@H](CC(=O)O)NC2=O (stereo partly drawn) [I-1332, PL3-Asp-Npg-B5-Asp-3COOHF-Ala-Ala-Phe-Leu-PyrS2-2C1F-BztA-Gln-NH2] | 900 | 2500 | 11 | 
CC(=O)N1CCC[C@]12CC=CCCCC1(CCCC=CCCCOC(=O)N3CC[C@@](C(=O)N[C@@H](Cc4ccccc4Cl)C(=O)N[C@@H](Cc4csc5ccccc45)C(=O)N[C@@H](CO)C(N)=O)(C3)NC(=O)[C@H](CC(C)C)NC(=O)[C@H](Cc3ccccc3)NC(=O)[C@H](C)NC(=O)[C@H](C)NC(=O)[C@H](Cc3cccc(C(=O)O)c3)NC(=O)[C@H](CC(=O)O)NC1=O)NC(=O)[C@H](CC(C)(C)C)NC(=O)[C@H](CC(=O)O)NC2=O (stereo partly drawn) [I-1333, PL3-Asp-Npg-B5-Asp-3COOHF-Ala-Ala-Phe-Leu-PyrS2-2C1F-BztA-Ser-NH2] | 1200 | 2800 | 20 | 
COCCC(=O)N1CCC[C@]12CC=CCCCC1(CCCC=CCCCOC(=O)N3CC[C@@](C(=O)N[C@@H](Cc4ccccc4)C(=O)N[C@@H](Cc4csc5ccccc45)C(=O)N[C@@H](CCC(N)=O)C(N)=O)(C3)NC(=O)[C@H](CC(C)C)NC(=O)[C@H](Cc3ccccc3)NC(=O)[C@H](C)NC(=O)[C@H](C)NC(=O)[C@H](CC(=O)O)NC(=O)[C@H](CC(=O)O)NC1=O)NC(=O)[C@H](CC(C)(C)C)NC(=O)[C@H](CC(=O)O)NC2=O (stereo partly drawn) [I-1362, PL3-Asp-Npg-B5-Asp-Asp-Ala-Ala-Phe-Leu-PyrS2-Phe-BztA-Gln-NH2] |  | 19600 | 23 | 
CCN(CC)C(=O)[C@H](CCC(N)=O)NC(=O)[C@H](Cc1csc2ccccc12)NC(=O)[C@H](Cc1ccsc1)NC(=O)[C@]12CCN(C1)C(=O)OCCCC=CCCCC1(CCCC=CC[C@]3(CCCN3C(C)=O)C(=O)N[C@@H](CC(=O)O)C(=O)N[C@@H](CC(C)(C)C)C(=O)N1)C(=O)N[C@@H](CC(=O)O)C(=O)N[C@@H](CC(=O)O)C(=O)N[C@@H](C)C(=O)N[C@@H](C)C(=O)N[C@@H](Cc1ccccc1)C(=O)N[C@@H](CC(N)=O)C(=O)N2 (stereo partly drawn) [I-1373, PL3-Asp-Npg-B5-Asp-Asp-Ala-Ala-Phe-Asn-PyrS2-3Thi-BztA-Gln-NEt2] |  | 18300 | 5 | 5
CC(=O)N1CCC[C@]12CC=CCCCC1(CCCC=CCCCOC(=O)N3CC[C@@](C(=O)N[C@@H](Cc4ccsc4)C(=O)N[C@@H](Cc4csc5ccccc45)C(=O)N[C@@H](CCC(N)=O)C(=O)NC4CCCCC4)(C3)NC(=O)[C@H](CC(N)=O)NC(=O)[C@H](Cc3ccccc3)NC(=O)[C@H](C)NC(=O)[C@H](C)NC(=O)[C@H](CC(=O)O)NC(=O)[C@H](CC(=O)O)NC1=O)NC(=O)[C@H](CC(C)(C)C)NC(=O)[C@H](CC(=O)O)NC2=O (stereo partly drawn) [I-1374, PL3-Asp-Npg-B5-Asp-Asp-Ala-Ala-Phe-Asn-PyrS2-3Thi-BztA-Gln-NHCyHe] |  | 8800 | 17 | 
CC(=O)N1CCC[C@]12CC=CCCCC1(CCCC=CCCCOC(=O)N3CC[C@@](C(=O)N[C@@H](Cc4ccsc4)C(=O)N[C@@H](Cc4csc5ccccc45)C(=O)N[C@@H](CCC(N)=O)C(=O)NC4CC4)(C3)NC(=O)[C@H](CC(N)=O)NC(=O)[C@H](Cc3ccccc3)NC(=O)[C@H](C)NC(=O)[C@H](C)NC(=O)[C@H](CC(=O)O)NC(=O)[C@H](CC(=O)O)NC1=O)NC(=O)[C@H](CC(C)(C)C)NC(=O)[C@H](CC(=O)O)NC2=O (stereo partly drawn) [I-1375, PL3-Asp-Npg-B5-Asp-Asp-Ala-Ala-Phe-Asn-PyrS2-3Thi-BztA-Gln-NHCyPr] |  | 18500 | 7 | 
CC(=O)N1CCC[C@]12CC=CCCCC1(CCCC=CCCCOC(=O)N3CC[C@@](C(=O)N[C@@H](Cc4ccccc4)C(=O)N[C@@H](Cc4csc5ccccc45)C(=O)N[C@@H](CCC(N)=O)C(N)=O)(C3)NC(=O)[C@H](CC(C)C)NC(=O)[C@H](Cc3ccccc3)NC(=O)[C@H](C)NC(=O)[C@H](Cc3ccc(C#CCN(C)C)cc3)NC(=O)[C@H](CC(=O)O)NC(=O)[C@H](CC(=O)O)NC1=O)NC(=O)[C@H](CC(C)(C)C)NC(=O)[C@H](CC(=O)O)NC2=O (stereo partly drawn) [I-1467, Ac-PL3-Asp-Npg-B5-Asp-Asp-[CH2NMe2]4SEF-Ala-Phe-Leu-PyrS2-Phe-BztA-Gln] |  | 9600 | 12 | 
CC(=O)N1CCC[C@]12CC=CCCCC1(CCCC=CCCCOC(=O)N3CC[C@@](C(=O)N[C@@H](Cc4ccccc4)C(=O)N[C@@H](Cc4csc5ccccc45)C(=O)N[C@@H](CCC(N)=O)C(N)=O)(C3)NC(=O)[C@H](CC(C)C)NC(=O)[C@H](Cc3ccccc3)NC(=O)[C@H](C)NC(=O)[C@H](Cc3ccc(-c4cccnc4)cc3)NC(=O)[C@H](CC(=O)O)NC(=O)[C@H](CC(=O)O)NC1=O)NC(=O)[C@H](CC(C)(C)C)NC(=O)[C@H](CC(=O)O)NC2=O (stereo partly drawn) [I-1489, Ac-PL3-Asp-Npg-B5-Asp-Asp-[3Py]4SF-Ala-Phe-Leu-PyrS2-Phe-BztA-Gln-NH2] |  | 9200 | 17 | 
CC(=O)N1CCC[C@]12CC=CCCCC1(CCCC=CCCCOC(=O)N3CC[C@@](C(=O)N[C@@H](Cc4ccccc4Cl)C(=O)N[C@@H](Cc4csc5ccccc45)C(=O)N[C@@H](CCC(N)=O)C(N)=O)(C3)NC(=O)[C@H](CC(N)=O)NC(=O)[C@H](Cc3ccccc3)NC(=O)[C@H](C)NC(=O)[C@H](C)NC(=O)[C@H](CN(CCC(F)(F)C(F)(F)F)CC(=O)O)NC(=O)[C@H](CC(=O)O)NC1=O)NC(=O)[C@H](CC(C)(C)C)NC(=O)[C@H](CC(=O)O)NC2=O (stereo partly drawn) [I-1571, Ac-PL3-Asp-Npg-B5-Asp-[Pfb]GA-Ala-Ala-Phe-Asn-PyrS2-2C1F-BztA-Gln-NH2] |  | 11700 | 15 | 
